In the supplement of paper PMC4466236:
Whole data set: some 33,000 sequences, median “E-score (dimensionless, -0.5 to 0.5)” near -0.058, cut for the highest 2% near 0.35. This is one part of the list.

tested on: MvaT; test: PBM 8-mer E-score (mean of HK and ME arrays) (E-score (dimensionless, -0.5 to 0.5)); higher = stronger relative binding preference; most listed sequences are background and not binding sites
Outline: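 Full-length P. aeruginosa MvaT carrying an N-terminal glutathione S-transferase tag was tested by protein binding microarray following a previously described protocol. Two universal double-stranded 60-mer arrays, ME and HK, were used, each with a constant 25-mer primer region and a variable 35-mer region covering all 8-mers. The rank-based E-score is the mean of the two arrays, parsed with a custom script. Its range runs from -0.5 to 0.5 for each 8-mer.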

Row | Sequence | PBM 8-mer E-score
1 | GAATGCAC | -0.254
2 | ACCCGCTC | -0.211
3 | ATGGATCG | -0.146
4 | GCTGCTCA | -0.235
5 | CACAAGAG | -0.0406
6 | CGCAAAGA | -0.0963
7 | ATTAATGC | 0.341
8 | AGTTTCAG | 0.0952
9 | ACCGGTCT | -0.0498
10 | AAGGACGC | -0.207
11 | ATGAAAAA | -0.00382
12 | CCGGACCC | -0.195
13 | CAGTTAAG | 0.0695
14 | ACGGCTAC | -0.249
15 | ACCAACGT | -0.193
16 | CGTGAAGC | -0.218
17 | TGAGGAAA | 0.0797
18 | AAGCGCGT | 0.0364
19 | AAGAGTAG | 0.0495
20 | ACATTCGC | 0.0882
21 | AAGTGGGT | 0.0357
22 | ACTCACTA | 0.164
23 | ATCGGCAG | -0.226
24 | GTAGGCTA | -0.214
25 | ATACAACA | 0.331

Row | Sequence | PBM 8-mer E-score
26 | ACAAACGG | 0.1
27 | AGAGCTCC | -0.307
28 | CATCGTGA | -0.157
29 | ATAGTGGA | 0.176
30 | CGTTCGTC | -0.101
31 | CTGTGAAC | -0.0385
32 | CTTTAGCC | -0.049
33 | GGCCCCTA | -0.222
34 | CCCTTATC | 0.0147
35 | TAGGTCGA | -0.061
36 | GACAACGA | -0.00433
37 | ATCAATAC | 0.165
38 | GAGATGCC | -0.168
39 | ACTTAACC | 0.119
40 | GAGCTCCC | -0.337
41 | ATCAGGAG | -0.0972
42 | AGCGCCAC | -0.262
43 | AAAAGATC | 0.00329
44 | TGAAGTAA | 0.222
45 | TACCTGGA | -0.0284
46 | AGCTTCAC | -0.188
47 | CTTATTCC | 0.221
48 | CGGCGACC | -0.285
49 | ATAGAGAC | 0.0828
50 | ATACAGAC | 0.0447

Row | Sequence | PBM 8-mer E-score
51 | GTAAGTAA | 0.207
52 | CGAGTAGC | -0.253
53 | GTAGATCA | -0.0662
54 | GAGATAAC | 0.0136
55 | CCCTGTCG | -0.141
56 | AGCCTAAA | -0.112
57 | ATCAGGTA | -0.166
58 | CACATGCA | -0.0297
59 | AAGTGGAC | -0.113
60 | ATAGTGAG | 0.136
61 | TGCTATAA | 0.285
62 | AATAAATT | 0.436
63 | ACATGCGC | -0.144
64 | AAGGGGAC | -0.238
65 | ATCTACAA | 0.125
66 | GTAATCTA | 0.151
67 | CACCATGG | -0.25
68 | ACGCGCTC | -0.254
69 | GGCTTTCA | -0.087
70 | GTTTCACA | -0.00657
71 | CGTTGGAG | -0.203
72 | CCTAGAGC | -0.177
73 | CACGCCTA | -0.207
74 | CGGATTAC | 0.0302
75 | AGTCAAAG | 0.00141

Row | Sequence | PBM 8-mer E-score
76 | ACGCACAA | 0.0568
77 | AATGAAGG | 0.0758
78 | ACGTGCCC | -0.0699
79 | GCCGCCCA | -0.166
80 | GACTGCCA | -0.167
81 | AGTCTGGA | -0.0331
82 | AACAAACG | 0.15
83 | GCTTCCTA | -0.229
84 | CCTCGATA | -0.179
85 | CAGAGAAC | -0.0742
86 | TTAGGGAA | 0.0483
87 | AGGCACGA | -0.222
88 | ATGAAAGC | 0.111
89 | TCTCTACA | 0.00127
90 | GCGGTCCC | -0.33
91 | GCGCACAC | -0.217
92 | CGCAACGC | -0.12
93 | CAAGTCAC | -0.00509
94 | GAGCACCC | -0.0692
95 | GGGGATAC | -0.152
96 | ACAGTTTA | 0.205
97 | CAGATTTC | 0.00487
98 | ACTTTATA | 0.39
99 | ACATGTGA | 0.139
100 | CAGGGTGG | -0.217

Row | Sequence | PBM 8-mer E-score
101 | CTGTTGAC | -0.17
102 | ATACAAGC | 0.109
103 | CGACTGGC | -0.15
104 | CACATATC | 0.178
105 | ATCTGAGA | -0.0981
106 | ATTCTACC | 0.0658
107 | GATGACCA | -0.0801
108 | CAAAATAA | 0.343
109 | ACGTCCTC | -0.333
110 | AGATACGC | -0.0797
111 | ATGTTCGA | 0.0937
112 | ATTGACTC | 0.0485
113 | GCTCGGTA | -0.00285
114 | AGCATAAC | 0.13
115 | TACGGATA | -0.079
116 | GTCAGGGA | -0.136
117 | GGCAGACA | 0.0225
118 | GCCCCAAA | -0.0927
119 | TCGCTTCA | -0.0426
120 | GCTTGAAA | -0.0119
121 | GCGCTTCC | -0.242
122 | ATAACGTC | 0.125
123 | ACCGCAAG | -0.176
124 | CTTTGTCA | -0.0285
125 | AGACTTCC | -0.21

Row | Sequence | PBM 8-mer E-score
126 | GATCATAC | 0.0972
127 | AGGAATGG | -0.0828
128 | AATACACC | 0.181
129 | CGACCTAG | -0.0474
130 | CGCGTGTA | -0.0576
131 | CGATTTTC | 0.0289
132 | ACGCGTCG | -0.0515
133 | AGATCTGA | -0.0177
134 | CCTAGTCC | -0.209
135 | TCTGTACA | -0.034
136 | GTCGCTCA | -0.19
137 | AAGGCGGG | -0.245
138 | CTCAGCCC | -0.175
139 | AGCTACGA | -0.0769
140 | CATTCTCC | -0.185
141 | TCCTTCAA | -0.14
142 | ACGATGTG | -0.0662
143 | TCCATCCA | -0.156
144 | CTCCACCC | -0.26
145 | TGTGAAAA | 0.124
146 | ACATATAG | 0.264
147 | AAGGAACT | 0.0181
148 | CGAATTGA | -0.0176
149 | GATTGCAC | 0.0202
150 | AAGATGGT | 0.0543

Row | Sequence | PBM 8-mer E-score
151 | ACAGGACT | -0.164
152 | GATCAGGA | -0.0389
153 | GATAGATA | 0.0346
154 | ACGTAAAG | -0.0111
155 | AAACGACA | 0.118
156 | AGTATTGA | 0.227
157 | CCTCTGCG | -0.297
158 | TACGATGA | 0.0706
159 | ACCCTACC | -0.0835
160 | CTTGTGCA | -0.0227
161 | AGAGCGTA | -0.0436
162 | CCTGTAGC | -0.247
163 | CTCTGGGC | -0.139
164 | GCCTTAAC | 0.0617
165 | AACACCGG | 0.104
166 | CGAGGCGC | -0.253
167 | AACCGGGG | -0.213
168 | AGGGGTAA | -0.0363
169 | ATCGAGAG | -0.00233
170 | AGTGAGCA | -0.0559
171 | CGACGCGC | -0.182
172 | CGAACCGC | -0.161
